# Laboratory results: PubChem BioAssay AID2101 (National Center for Advancing Translational Sciences (NCATS), 2009)
# The campaign covered roughly 330,000 compounds. About 300 (0.091%) were called active. This list was built around the results that the source calls inconclusive (neither active nor inactive); the mix of calls is not that of the screen. Calls come from the whole dose curve; as a rule, active = well fitted inhibition curve with a large enough effect; inconclusive = small, poorly fitted or top-dose-only effect, or effect the other way, or another doubt; inactive = no such curve, though single readings can be large or run the other way. No potency is given beside an inconclusive call; the fits are too rough.
# Biological target: Lysosomal acid glucosylceramidase (Homo sapiens) (UniProt P04062)
# Test: qHTS Assay for Inhibitors and Activators of N370S glucocerebrosidase as a Potential Chaperone Treatment of Gaucher Disease;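 for activity change, negative = inhibition: 0% = full enzyme activity and -100% = no enzyme basal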
# Conditions: N370S GC spleen homogenate, 4MU-glucoside fluorescence; activity change, negative = inhibition: at 59.4 µM (top of the series) unless noted
# Potency is the fitted concentration of half-maximal effect.
Structure (SMILES),Potency,"activity change, negative = inhibition"
CC(=O)c1ccc(-c2ccc(C(=O)NC3CC(C)(C)NC(C)(C)C3)o2)cc1,"inconclusive [activator, partial curve]",–
O=c1nc(N/N=C/c2c[nH]c3ccccc23)cn[nH]1,inactive,–
Cc1nc2c(C(=O)NCc3cccs3)cnn2c(C)c1Cc1ccccc1,"inconclusive [activator, partial curve]",–
CCCc1cc(=O)oc2c(CN3CCN(C)CC3)c(O)c(Cl)cc12,"inconclusive [activator, partial curve]",–
CS(=O)(=O)N(CC(=O)N/N=C/c1ccccn1)c1ccc(Oc2ccccc2)cc1,"inconclusive [activator, partial curve]",–
COc1ccc(Cn2c(C)nc3c(c(=O)c4ccccc4n3C)c2=O)cc1,"inconclusive [activator, single point]",–
Cc1cc(C)n(-c2ccc(C(=O)OCc3nnc(-c4ccccc4)o3)cc2)n1,inactive,–
CCOC(=O)c1cnc(-c2ccccc2)nc1-c1ccccc1,"inconclusive [activator, partial curve, poor fit]",–
O=C(O)c1ccc(N/N=C/c2cccc3nccnc23)cc1,inactive,–
Cc1nc(N2CCN(S(=O)(=O)c3ccccc3C#N)CC2)c2c(-c3cccs3)csc2n1,"inconclusive [inhibitor, single point]",–
Cc1ccc(CN(CC(=O)N/N=C/c2ccco2)S(=O)(=O)c2ccc(C)cc2)cc1,"inconclusive [activator, partial curve]",–
CCn1c(SCC(=O)Nc2ccccc2F)nc2c(c1=O)SC(C)C2 (stereo not drawn),"inconclusive [activator, partial curve]",–
Nc1nc(NCc2ccco2)nc(Nc2ccc(F)cc2)c1[N+](=O)[O-],"inconclusive [inhibitor, single point]",–
N=c1c(S(=O)(=O)c2ccc(F)cc2)cc2c(=O)n3ccccc3nc2n1CC1CCCO1 (stereo not drawn),"inconclusive [activator, single point]",–
CCc1ccc2[nH]c(=O)c(CN(CC3CCCO3)C(=S)NCc3ccco3)cc2c1 (stereo not drawn),"inconclusive [activator, partial curve, poor fit]",–
CCCCCc1cc(=O)oc2c(C(CCN3CCCC(C)C3)c3cc(OC)c(OC)c(OC)c3)c(OC)cc(OC)c12 (stereo not drawn),"inconclusive [inhibitor, partial curve]",–
COc1ccc(N2C(=O)c3ccccc3NC2c2ccc(OC)c(Cn3nnc4ccccc43)c2)cc1 (stereo not drawn),"inconclusive [activator, partial curve]",–
Cc1cc(=O)oc2cc3c(cc12)OCCN3,"inconclusive [activator, partial curve]",–
Cc1ccc(S(=O)(=O)c2c(N)n(C)c3nc4ccccc4nc23)cc1,"inconclusive [activator, single point]",–
CCC(CC)C(=O)Nc1c(C(=O)N2CCN(c3ccccc3)CC2)oc2ccccc12,inactive,–
COc1ccc(C(=O)NCC2(c3ccc(OC)c(OC)c3)CCCC2)c(OC)c1,"inconclusive [activator, partial curve]",–

Structure (SMILES),Potency,"activity change, negative = inhibition"
Cn1cccc1C(=O)NCCc1ccc(Cl)cc1,inactive,–
CCC(=O)c1cn(CC(=O)NCc2ccco2)c2ccccc12,"inconclusive [inhibitor, single point]",–
CCCCCC1CCC(c2ccc(/C(N)=N/O)cc2)CC1 (stereo not drawn),"inconclusive [inhibitor, single point]",–
Cc1cccn2c(=O)c3cc(C#N)c(=O)n(CCCN4CCOCC4)c3nc12,"inconclusive [activator, partial curve]",–
COc1ccc(OC)c(Nc2ncnc3ccc(Br)cc23)c1,"inconclusive [activator, single point]",–
O=C(NC1CCCCCC1)c1ccc(CS(=O)Cc2ccccc2Cl)o1 (stereo not drawn),"inconclusive [activator, partial curve]",–
C/C(=N\NC(=O)NC1CCCCC1)c1ccc(OC(F)F)cc1OC(F)F,"inconclusive [activator, partial curve]",–
Cc1cc(NC(=O)c2ccccc2-c2ccccc2)ccc1Br,"inconclusive [activator, partial curve]",–
COc1ccc2cc3cc(C(=O)NCC4COc5ccccc5O4)oc3nc2c1 (stereo not drawn),inactive,–
O=C(NCCN1CCOCC1)c1ccc(/C=C2\Sc3ccccc3N(Cc3ccc(F)cc3)C2=O)cc1,"inconclusive [inhibitor, partial curve]",–
COc1ccc(N/C=C2/Sc3ccccc3NC2=O)cc1,inactive,–
C/C(=N\Nc1ncc(Cl)cc1Cl)c1ccc2c(c1)OCO2,inactive,–
CSc1nc2sc3c(c2c(=O)n1C1CCCCC1)CCN(C)C3,"inconclusive [activator, partial curve]",–
COC(=O)c1cc(Oc2ccc(C(=O)OC)cc2N)cc(C(=O)OC)c1,inactive,–
CCOC(=O)c1c(NC(=O)Cc2cccs2)sc(C)c1C,"inconclusive [activator, partial curve]",–
CCc1cc(=O)oc2cc(OC(C)=O)cc(OC(C)=O)c12,"inconclusive [activator, single point]",–
Cc1ccc(/C=C/C(=O)OCC(=O)Nc2ccc3[nH]c(=O)[nH]c3c2)o1,"inconclusive [inhibitor, single point]",–
CCS(=O)(=O)Nc1ccc(-c2nc3cccnc3s2)cc1,"inconclusive [activator, partial curve]",–
COc1ccccc1N1CCN(C(=O)C(=O)c2c(C)n(C)c3ccccc23)CC1,inactive,–
O=c1oc2c(CN3CCN(CCO)CC3)c(O)ccc2cc1-c1ccccn1,"inconclusive [activator, partial curve]",–
CCN(CC)S(=O)(=O)c1ccc(/C=C/C(=O)OCC(=O)Nc2ccc(S(N)(=O)=O)cc2)cc1,–,inconclusive: 33% [activator]

Structure (SMILES),Potency,"activity change, negative = inhibition"
O=C(COc1cc2oc(=O)c3c(c2cc1Cl)CCCC3)N1C[C@H]2C[C@@H](C1)c1cccc(=O)n1C2,"inconclusive [activator, single point]",–
COc1ccc(OC)c(NC(=O)CSc2nc(-c3ccccc3)cc(=O)[nH]2)c1,"inconclusive [activator, full curve, poor fit]",–
CSCC[C@H](NC(=O)[C@H](Cc1ccccc1)NC(=O)[C@H](Cc1cnc[nH]1)NC(=O)CNC(=O)[C@@H](NC(=O)[C@H](C)NC(=O)[C@H](Cc1c[nH]c2ccccc12)NC(=O)[C@H](CC(C)C)NC(=O)[C@H](CC(N)=O)NC(=O)CN)[C@@H](C)O)C(N)=O,"inconclusive [inhibitor, single point]",–
COc1ccc(NC(=O)CSc2ccc3nnc(CCNC(=O)c4ccccc4)n3n2)cc1,"inconclusive [activator, partial curve]",–
CCOC(=O)c1ccc(-c2ccc(/C=N/NC(=O)Cc3nnc(N)s3)o2)cc1,inactive,–
CCOc1ccc(OCCCC(=O)O)cc1,"inconclusive [inhibitor, single point]",–
COC(=O)c1ccccc1NC(=O)Nc1cc(C)cc(C)n1,"inconclusive [activator, single point]",–
CCc1ccc2[nH]c(=O)c(CN(CCCN3CCOCC3)C(=O)Nc3ccc(F)cc3)cc2c1,"inconclusive [inhibitor, single point]",–
CCC(=O)NC1=C(Cl)C(=O)C(NC(=O)CC)=C(Cl)C1=O,inactive,–
O=C(NC(=S)NCCc1ccc(Cl)cc1)c1ccco1,"inconclusive [activator, partial curve]",–
COc1ccc2cc(C(=O)C3CCCN(C(=O)C4=NN(C)C(=O)CC4)C3)ccc2c1 (stereo not drawn),"inconclusive [activator, single point]",–
Cc1cc(C)c(C)c(S(=O)(=O)N2CCN(C(=O)CCc3nc4ccccc4c(=O)[nH]3)CC2)c1C,"inconclusive [inhibitor, partial curve]",–
CCCc1ccc2oc(C(=O)N(C)Cc3nccs3)c(C)c2c1,"inconclusive [activator, single point]",–
CC12C=CC(=O)C=C1CCC1C2=CCC2(C)C1CC[C@@H]2C(=O)CN1CCN(c2cc(N3CCCC3)nc(N3CCCC3)n2)CC1 (stereo partly drawn),inactive,–
CN(CC(=O)NC(=O)NCc1ccccc1)CC(=O)Nc1ccc(Cl)c(C(F)(F)F)c1,"inconclusive [activator, single point]",–
CCc1ccc(/C=C2\SC(=S)N(CCC(=O)NCCCN3CCOCC3)C2=O)cc1,"inconclusive [inhibitor, full curve]",–
O=C(NCCO)c1cc2ccccc2cc1O,"inconclusive [inhibitor, partial curve]",–
Cc1ccc(C)c(NC(=S)NCc2ccc3[nH]c4c(c3c2)CCCC4)c1,"inconclusive [activator, partial curve]",–
Cc1ccccc1CC(=O)Nc1ccc2c(C)cc(=O)oc2c1,"inconclusive [activator, single point]",–
CC(=O)Nc1cc2ccc(OC(C)=O)cc2oc1=O,"inconclusive [activator, partial curve]",–
O=C(Nc1ccc(Br)cc1Br)C1CC(=O)N(Cc2ccccc2)C1 (stereo not drawn),"inconclusive [inhibitor, single point]",–
